Measured values from PubChem BioAssay AID686978 (National Center for Advancing Translational Sciences (NCATS), 2013).
The campaign covered roughly 420,000 compounds. About 64,000 (15%) were called active. The shares of active, inactive and inconclusive entries below differ from those in the screen. Calls come from the whole dose curve; as a rule, active = well fitted inhibition curve with a large enough effect; inconclusive = small, poorly fitted or top-dose-only effect; inactive = flat fitted curve, though single readings scatter. Potencies of inconclusive entries are left out as doubtful fits.

Test: qHTS for Inhibitors of human tyrosyl-DNA phosphodiesterase 1 (TDP1): qHTS in cells in absence of CPT; note: nearly all actives have a fitted effect of over 55% in size
Settings: DT40 Tdp1-/- hTDP1 cells, no CPT, ATP luminescence, 48 h; activity change, negative = growth inhibition: at 46.2 µM (top of the series) unless noted
Procedure, shortened: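 Chicken DT40 Tdp1-/- cells complemented with human TDP1, screened without camptothecin (DMSO vehicle only), 400 cells/well. Compounds pin-transferred, cells incubated at 37 °C for at least 48 hr. Growth read as ATP-dependent luminescence (CellTiter-Glo, 30 min at RT).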
% is set by controls: 0 for no effect and ±100 for the full control effect; potency is the fitted concentration of half-maximal effect; tags give direction and shape of the fitted curve.

For `COCCNCCOCCOc1ccc(Cl)c(C)c1`, which Potency is on record?
The Potency was inconclusive [inhibitor, partial curve, poor fit].

For `CC(C)Cn1c(SCC(=O)Nc2ccc(Cl)cc2F)nc(O)cc1=O`, which “activity change, negative = growth inhibition” value is on record?
The value was inactive: -20.6%.

For `CCOC(=O)C1=C[C@@H](C(C)(C)C)N(S(=O)(=O)c2ccc(C)cc2)[C@H]1c1ccc(C)cc1`, which Potency is on record?
Its Potency is active: 11.6 µM.

With `O=C(NC(=S)NCc1ccccc1)c1cccc([N+](=O)[O-])c1` as the compound, how does the Potency read?
The Potency was inconclusive [inhibitor, single point].

For `CC(C)N(Cc1ccccc1)C(=O)c1ccc2c(c1)OCO2`, which “activity change, negative = growth inhibition” value is on record?
Its value is inactive: -13.6%.

For `Cc1cc(-c2ccc(C)c(S(=O)(=O)Nc3ccccc3C(F)(F)F)c2)on1`, which Potency is on record?
The Potency was inconclusive [inhibitor, single point].

Which Potency does the source give for `CCOc1cccc(/C=N/N2C(=O)CSC2=S)c1O` here?
Its Potency is inconclusive [inhibitor, partial curve, poor fit].

For `CC(=O)c1sc2nc(C)c3c(c2c1N)CCCC3`, which Potency is on record?
Its Potency is inconclusive [inhibitor, single point].

For `COc1ccccc1C(=O)Nc1ccc(NC(=O)c2ccco2)cn1`, which Potency is on record?
Its Potency is active: 20.6 µM.

Which “activity change, negative = growth inhibition” value does the source give for `Cc1c(Nc2nc3ccccc3nc2NS(=O)(=O)c2cccc(Cl)c2)c(=O)n(-c2ccccc2)n1C` here?
The value was inactive: -23.5%.

For `O=C(NC(=S)NCCc1ccccn1)c1ccco1`, which activity change, negative = growth inhibition is on record?
The activity change, negative = growth inhibition was inconclusive: -36.4% [inhibitor].

Which Potency does the source give for `COc1nc(NCC(C)C)nc(Oc2ccc(OCc3ccccc3)nn2)n1` here?
The Potency was inconclusive [inhibitor, partial curve, poor fit].

Which “activity change, negative = growth inhibition” value does the source give for `Cc1ccc(-n2nc(C(N)=O)nc2-c2ccccc2)cc1` here?
Its value is inactive: -19.9%.

Which Potency does the source give for `Cc1ccc(S(=O)(=O)NC23CC4CC(CC(C4)C2)C3)cc1` here?
The Potency was active: 20.6 µM.

With `Cc1ccc(C)n1-c1c(C(=O)NCC(C)c2ccccc2)sc2ncccc12` (stereo not drawn) as the compound, how does the Potency read?
Its Potency is active: 18.4 µM.

With `COc1c(Cl)c(=O)oc2ccc(Cl)cc12` as the compound, how does the “activity change, negative = growth inhibition” value read?
Its value is inactive: -1.55%.

Which Potency does the source give for `O=Cc1cn(-c2ccccc2)nc1-c1ccc(F)cc1` here?
Its Potency is active: 20.6 µM.

Which Potency does the source give for `COc1ccc(C/C(C)=N/NC(=S)Nc2ccccc2F)cc1` here?
The Potency was inconclusive [inhibitor, single point].

With `COc1ccc(OCCCC(=O)Nc2ccc(OC)c(S(=O)(=O)N3CCOCC3)c2)cc1` as the compound, how does the “activity change, negative = growth inhibition” value read?
Its value is inactive: -22.5%.

With `CC(C)NC(=S)NNc1nc2ccccc2s1` as the compound, how does the Potency read?
Its Potency is active: 2.91 µM.

Which “activity change, negative = growth inhibition” value does the source give for `Cc1cccc(-c2noc(CNC(=O)c3ccc4c(c3)OCO4)n2)c1` here?
The value was inactive: 3.33%.

With `C1=C(c2sc3ccccc3c2-c2ccc(OCCN3CCOCC3)cc2)CCCC1` as the compound, how does the Potency read?
The Potency was inconclusive [inhibitor, single point].

Which Potency does the source give for `COC(=O)[C@@]12C[C@@H](CC(=O)NCCCN3CCCC3=O)C(=O)N(Cc3ccc4c(c3)OCO4)C1=CCC(C)(C)C2` here?
Its Potency is inconclusive [inhibitor, single point].

For `CCCCCc1c(-c2ccccc2OC)ncn1CCc1ccccc1OC`, which Potency is on record?
The Potency was active: 5.17 µM.

Which “activity change, negative = growth inhibition” value does the source give for `C[C@@H](Cc1ccccc1)Nc1ncnc2c1ncn2[C@@H]1O[C@H](CO)[C@@H](O)[C@H]1O` here?
Its value is inactive: -28.9%.

With `COc1ccc(Cn2c(=O)[nH]c3cc(C(=O)NC4CCN(Cc5ccccc5)CC4)ccc32)cc1` as the compound, how does the Potency read?
The Potency was inconclusive [inhibitor, partial curve].

With `C[C@@H]1CN(S(=O)C(C)(C)C)[C@H](CCO)/C1=C\CCO` (stereo partly drawn) as the compound, how does the “activity change, negative = growth inhibition” value read?
Its value is inactive: -0.269%.

For `COc1ccc(C(=O)Oc2c(Sc3ccc(Cl)cc3)c(C)nn2C(C)(C)C)cc1OC`, which Potency is on record?
The Potency was inconclusive [inhibitor, single point].

For `CC1(O)CCC(C(C)(C)O)CC1` (stereo not drawn), which “activity change, negative = growth inhibition” value is on record?
The value was inactive: -6.26%.

With `CCCCn1c(N)c(-c2nc3ccccc3s2)c2c([N+](=O)[O-])nn(CC)c(=O)c21` as the compound, how does the Potency read?
The Potency was inconclusive [inhibitor, single point].

Which “activity change, negative = growth inhibition” value does the source give for `NC(=O)CSc1cn(CCNC(=O)c2cccs2)c2ccccc12` here?
The value was inactive: -17%.

Which Potency does the source give for `CCc1ccc(-n2nc3ccc(NC(=O)c4ccc5c(c4)OCO5)cc3n2)cc1` here?
Its Potency is inconclusive [inhibitor, partial curve].

For `C=C(C)[C@@H]1CC=C(CN2CCN(Cc3ccccc3)CC2)CC1`, which Potency is on record?
Its Potency is inconclusive [inhibitor, single point].

With `COc1ccc(NC(=O)CCCn2c(=O)c3cccn3c3ccccc32)c(OC)c1` as the compound, how does the Potency read?
Its Potency is active: 10.3 µM.

With `Cc1nn(Cc2ccccc2)c(C)c1NC(=O)CSc1nc(C2CC2)nc2c1cnn2-c1ccccc1` as the compound, how does the Potency read?
The Potency was active: 16.4 µM.

For `CCOc1cc(NC(=O)c2ccccc2C)c(OCC)cc1NC(=O)C1=Cc2ccccc2OC1`, which Potency is on record?
The Potency was active: 5.8 µM.

With `COc1cccc(OC)c1-c1nnc(-c2cn(C)c3ccccc23)o1` as the compound, how does the Potency read?
The Potency was inconclusive [inhibitor, single point].

Which “activity change, negative = growth inhibition” value does the source give for `COc1cc(C(=O)N2CCc3ccccc32)c([N+](=O)[O-])cc1OC` here?
The value was inactive: -14%.

Which “activity change, negative = growth inhibition” value does the source give for `CCc1ccccc1NC(=O)Cn1c(=O)n(CCCS(=O)(=O)C2CCCCC2)c(=O)c2ccccc21` here?
The value was inactive: 2.5%.

For `O=C(/C=C/c1cccs1)N1CCN(Cc2ccc3c(c2)OCO3)CC1`, which Potency is on record?
Its Potency is inconclusive [inhibitor, partial curve].

For `O=C(Cn1c(=O)c2ccccc2n(CC(=O)Nc2ccc(Cl)cc2)c1=O)NCCc1ccccc1`, which Potency is on record?
Its Potency is inconclusive [inhibitor, single point].

Which Potency does the source give for `Cc1cnc(C(=O)N2CCOc3ccc(CN4CCCC(C(=O)c5cccnc5)C4)cc3C2)[nH]1` (stereo not drawn) here?
The Potency was inconclusive [inhibitor, single point].

Which Potency does the source give for `Cc1c(CCNC(=O)Cc2ccc(F)cc2)sc2nc(-c3ccc(F)cc3)nn12` here?
Its Potency is inconclusive [inhibitor, single point].

With `COc1ccc(-c2[nH]ncc2CNC(C)c2cn(C)nc2C)c(F)c1` (stereo not drawn) as the compound, how does the “activity change, negative = growth inhibition” value read?
The value was inactive: -3.8%.

Which Potency does the source give for `CC12CC3(C)CC(C)(C1)CC(C(=O)NC(=S)N1CCOCC1)(C2)C3` here?
Its Potency is inconclusive [inhibitor, single point].

With `CS(=O)(=O)c1ccc(Cl)c(C(=O)Nc2ccc3nc(N4CCOCC4)sc3c2)c1` as the compound, how does the Potency read?
Its Potency is inconclusive [inhibitor, partial curve].

For `CC(=O)Nc1ccc(NC(=O)C(C)OC(=O)/C=C/c2cn(-c3ccccc3)nc2-c2cccnc2)cc1` (stereo not drawn), which Potency is on record?
The Potency was active: 20.6 µM.

With `CCCCN(C)CCNC(=O)C1CCCN(S(=O)(=O)c2ccc3c(c2)oc(=O)n3C)C1` (stereo not drawn) as the compound, how does the “activity change, negative = growth inhibition” value read?
The value was inactive: -24.3%.

Which Potency does the source give for `CCOC(=O)N1CCN(C2CC(=O)N(c3ccc(Cl)c(Cl)c3)C2=O)CC1` (stereo not drawn) here?
Its Potency is inconclusive [inhibitor, partial curve, poor fit].

With `CC(=O)Nc1ccc(-c2nnn(CC(=O)Nc3ccc4c(c3)OCO4)n2)cc1Cl` as the compound, how does the “activity change, negative = growth inhibition” value read?
Its value is inactive: -9.45%.

Which Potency does the source give for `CSc1cccc(CN2CCN(CCc3ccccc3)C(CCO)C2)c1` (stereo not drawn) here?
Its Potency is inconclusive [inhibitor, single point].

For `O=C(NCc1ccccc1)c1c[nH]c2ccc(F)cc2c1=O`, which Potency is on record?
Its Potency is inconclusive [inhibitor, single point].

For `Cc1ccc(C2=NN(C(=O)CCC(=O)O)C(c3cccs3)C2)cc1` (stereo not drawn), which “activity change, negative = growth inhibition” value is on record?
The value was inactive: 24.1%.

For `COC(=O)c1cc(COC(=O)c2ccc(OC)c(S(=O)(=O)N3CCCC3)c2)oc1C`, which Potency is on record?
Its Potency is inconclusive [inhibitor, single point].

For `CN(C)C(=S)NC(=O)C12CC3(C)CC(C)(CC(C)(C3)C1)C2`, which Potency is on record?
Its Potency is active: 1.3 µM.

Which Potency does the source give for `CC1(C(=O)Nc2ccc(Cl)c(Cl)c2)CCN1C(=O)Cc1cccc2ccccc12` (stereo not drawn) here?
The Potency was inconclusive [inhibitor, single point].

Which Potency does the source give for `CCN=C1S/C(=C\c2cn(C(C)=O)nc2-c2ccccc2)C(=O)N1CC` here?
The Potency was inconclusive [inhibitor, single point].

For `CC(=O)Nc1ccc(S(=O)(=O)NN=c2sc3ccccc3n2C)cc1N`, which Potency is on record?
Its Potency is inconclusive [inhibitor, partial curve, poor fit].

With `O=C(Nn1c(-c2ccncc2)nc2ccccc2c1=O)c1ccc(Br)cc1` as the compound, how does the “activity change, negative = growth inhibition” value read?
The value was inactive: 1.56%.

For `c1cncc(CNc2nc(-c3ccc4c(c3)OCO4)nc3ccccc23)c1`, which Potency is on record?
The Potency was inconclusive [inhibitor, single point].

With `O=C(/C=C/c1ccc([N+](=O)[O-])cc1)OCC(=O)N1CCCCCC1` as the compound, how does the “activity change, negative = growth inhibition” value read?
Its value is inactive: -23.4%.

For `CC1(C)CC(=O)C2=C(C1)OC(N)=C(C#N)C2c1ccccc1[N+](=O)[O-]` (stereo not drawn), which Potency is on record?
The Potency was inconclusive [inhibitor, single point].

With `COc1ccc(N2CCN(C(=O)CSc3nc4[nH]ncc4c(=O)n3-c3ccc(Br)cc3)CC2)cc1` as the compound, how does the Potency read?
The Potency was inconclusive [inhibitor, single point].

With `COc1cc(CNn2c(C)n[nH]c2=S)cc(Cl)c1OCc1ccccc1` as the compound, how does the “activity change, negative = growth inhibition” value read?
The value was inactive: -12.2%.

With `Nc1nc(=O)n(C2OC(CO)C(O)C2O)cc1F` (stereo not drawn) as the compound, how does the Potency read?
Its Potency is active: 0.0058 µM.

For `Cc1ccc(NC(=O)C2CCN(S(=O)(=O)c3ccc(F)cc3)CC2)cc1`, which Potency is on record?
The Potency was inconclusive [inhibitor, partial curve].

Which “activity change, negative = growth inhibition” value does the source give for `Cc1ccc(NC(=O)c2c3c(nc4ccccc24)CCC3)cc1` here?
Its value is inactive: -6.63%.

For `Cc1ccc(N(CC(=O)NCc2ccccn2)S(=O)(=O)c2ccccc2)cc1C`, which “activity change, negative = growth inhibition” value is on record?
The value was inactive: -24.1%.

With `COc1ccc(C)cc1N(C(=O)CNC(=O)c1ccco1)C(C(=O)NCC1CCCO1)c1ccccc1` (stereo not drawn) as the compound, how does the “activity change, negative = growth inhibition” value read?
The value was inactive: -10.2%.

For `COc1cccc(/C=C2\SC(=S)N(CCCC(=O)Nc3cc(C)on3)C2=O)c1`, which “activity change, negative = growth inhibition” value is on record?
The value was inactive: -5.62%.

With `CN1CCCN(C(=O)/C=C/c2ccc(Cl)cc2Cl)CC1` as the compound, how does the Potency read?
Its Potency is inconclusive [inhibitor, single point].

With `COc1ccc(S(=O)(=O)N2CCN(CC(O)COc3ccc(C#N)cc3)CC2)cc1OC` (stereo not drawn) as the compound, how does the Potency read?
The Potency was inconclusive [inhibitor, partial curve, poor fit].

With `Fc1ccc(OCc2nn3c(Cn4nnc5ccccc54)nnc3s2)cc1` as the compound, how does the “activity change, negative = growth inhibition” value read?
Its value is inactive: -27.8%.
